Data published in publication PMC12136788.
The list shows a part of the results.

T1: UNK ZnF1-3 (human, UniProt Q9C0B0 31-174)
T1 sequence: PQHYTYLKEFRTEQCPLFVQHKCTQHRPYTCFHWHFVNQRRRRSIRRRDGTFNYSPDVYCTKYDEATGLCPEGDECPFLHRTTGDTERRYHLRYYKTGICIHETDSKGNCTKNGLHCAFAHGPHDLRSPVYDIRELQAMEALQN

B1: chr8:67197462:67197463:-_ENSMUSG00000031604_ENSMUST00000034015|mus_hu|FALSE|FALSE (ssRNA)
RNA: GGGAGUUCUACAGUCCGACGAUCCUGAAAUGACCAGUAUAUAUCUAAAAGAUUUAAAGACCCAAUGUGAACUUCAGGCCUAUGGUUUUACUGGGAGAAAAGCCAUAGAUUAAUACUUCUAGUAUCCAAAACCUUCUUGGAAGCCAACAGAGGAUUGAGCAUCA
B2: chr1:66488090:66488091:+_ENSMUSG00000015222_ENSMUST00000077355|mus_mus|FALSE|FALSE (ssRNA)
RNA: GGGAGUUCUACAGUCCGACGAUCCACCUUUCAUUUCUAGAUCAGCGUAUGUGUAUCCCCACAAAAGUGGUGUCCAAAAAGCUUAAUUUGAGUCAUUAUCUUAAGAGAGUAGGUAAGGUGAGCUCCAUCCCACAUUCCCAUAAGCAACAGAGGAUUGAGCAUCA
B3: chr17:65740002:65740003:+_ENSG00000130935_ENST00000581375|hu_hu|hu_hu_hu_mus_False|1_78 (ssRNA)
RNA: GGGAGUUCUACAGUCCGACGAUCAACAAAUCUUUCUUCCCUGGACGAACAGGAAGACAUAAAAGAGAAAAAAUAUAUAUCCAUCAAGUUAGGUGUGGUGGCCACACCUUUACUCCCAGCACUUUGGGAGGUGGAUCCUCUAUUCAACAGAGGAUUGAGCAUCA
B4: chr13:100200628:100200629:-_ENSMUSG00000052727_ENSMUST00000064762|perfect_dup|motif|central (ssRNA)
RNA: GGGAGUUCUACAGUCCGACGAUCGUCACCAGGUGUCUUCCCUCCACUGUCCUUCUCCAGGCCAGGUGUGGACAAAUCUCGGUUCAAGGCUAGAUGGUGUUGCAUUGUAUCGAAUAACACUGAGGCACGGAAGCCAUAGGGCUCCAACAGAGGAUUGAGCAUCA
B5: 100650496_100650616_7947_3pUTR_ENSMUSG00000023032_ENSMUST00000023776|mouse|control|control (ssRNA)
RNA: GGGAGUUCUACAGUCCGACGAUCGAAGGUUUAUACAGUUUCUAGGAAUCGGAAAUUUAUCUCAGAUAAAACAAAGUGUGCAAUGGGUGAAAUGUGUGGGACCAGAAGGUCUAACAGGAAAGCUAAGACCUGAUGUGGCUGAUCCAACAGAGGAUUGAGCAUCA
B6: chr16:45382771:45382772:-_ENSMUSG00000022661_ENSMUST00000163230|mus_mus|motif|central (ssRNA)
RNA: GGGAGUUCUACAGUCCGACGAUCGAGAGUGUUAUUGUGGGCCCAAUGGAUAGGGAGAGCAUGCUUUUGUAAAGAUGUGAACGGCUCACUAAGACUAACAAUAUUGCCUAAGUGCUAUAAAAAUAAGUUAAAUGGACACAUUACCAACAGAGGAUUGAGCAUCA
B7: chr10:110404880:110404881:-_ENSMUSG00000035798_ENSMUST00000041723|mus_hu|FALSE|FALSE (ssRNA)
RNA: GGGAGUUCUACAGUCCGACGAUCGUUUUUGUGAUACUUGUCACCAAGGUUAACUGAAACAUUGAAUGUUAAAAGCAAUCUAGUUGGAUCCACACUAUGUGUUCUAUAUGCUGCCCACAUUAAAGGCGUCAUUCCAUUCUGAUCCAACAGAGGAUUGAGCAUCA
B8: chr2:136540380:136540381:+_ENSG00000144224_ENST00000272638|hu_mus|FALSE|FALSE (ssRNA)
RNA: GGGAGUUCUACAGUCCGACGAUCGGAGUUUCCAUUCCAAGUGUUGUUCUCGUCUUCACCGUCAUCUUGAGUCCUCAGUCUGUAUAUUUUCCCUUCUUUUUUAAAGUCUUCCCCUCGUUUUUCCAGCAUUCUUUUUCGGACUGGCAACAGAGGAUUGAGCAUCA
B9: chr14:66974463:66974464:+_ENSMUSG00000022044_ENSMUST00000074523|mus_hu|mus_mus_mus_hu_False|18_58 (ssRNA)
RNA: GGGAGUUCUACAGUCCGACGAUCUUGUAGGACGACUUAUUCAGGGGAUCGGCCAGGAAGCAGGAGCAGAACAAGGACACUAGUGGGAGCUCCUUCAUCUUCUCUUUGUAGGCAGCAAGAGUCAUGUUUCUGGGAUCUGGUGGCCAACAGAGGAUUGAGCAUCA
B10: chrX:101971874:101971875:+_ENSG00000158301_ENST00000332262|hu_mus|motif|central (ssRNA)
RNA: GGGAGUUCUACAGUCCGACGAUCUAUAGUGAGAUGUCUAAGCAUCCUCAUUCCAGUUAGCUGUUCAGGGGAAUUCACGCGGUGUGAAAGUGUCUCCUCACACACUUGACAAAUAAAUGUCUCAAUCAUGUUUAGAUUUGGAUACAACAGAGGAUUGAGCAUCA
B11: chr7:54825262:54825263:-_ENSG00000132432_ENST00000352861|hu_hu|hu_hu_hu_mus_False|1_8 (ssRNA)
RNA: GGGAGUUCUACAGUCCGACGAUCCUGCCGGCUGGGCUCCACAAACUGCAUUACCUGAUCCAUGUUUGUUGGAUGGCGGAUUGAGAGCGUAGAGACACGUAGCUCAGGAGAGAACCGAGCCCAACGGCACCGGAACCGGAAUCCCAACAGAGGAUUGAGCAUCA
B12: chr8:109707966:109707967:+_ENSMUSG00000031924_ENSMUST00000034400|mus_mus|FALSE|FALSE (ssRNA)
RNA: GGGAGUUCUACAGUCCGACGAUCAAUUUACUUAAAAAGAAAAAUGGGAAAAGAUUCAUAACCUGACUGCUGUUCCCUUAACUAUAUCUACUAUGAAUUCAAAUUAUGAGAAAUCAUGUACUGUCCCCAAAGGCCAUGUCACUACAACAGAGGAUUGAGCAUCA
B13: 109580411_109580531_113_CDS_ENSMUSG00000031916_ENSMUST00000034391|mouse|control|control (ssRNA)
RNA: GGGAGUUCUACAGUCCGACGAUCCUCACGCCACUGAGCUUCGGGGAAGCGGUCCCGGAAUAGCGACGCCAGGAGGCCCUCAUCUUCCACCUCCCCCAGCGCGACGGCCGUGGCUGUCGUCGUGGCCGAAGCGGUCGUGGAGGGCAACAGAGGAUUGAGCAUCA
B14: chr11:79252212:79252213:+_ENSMUSG00000020716_ENSMUST00000071325|mus_hu|FALSE|FALSE (ssRNA)
RNA: GGGAGUUCUACAGUCCGACGAUCACUAGAAGGAAUAUCACAUCCUACCCCGUAAAAAAGGAGAAAGUGACAGGAACUUCUAUCUGCCUGCUUAUUUUUAAGAAGAAAUUUAUUCCUGCAGAUCAAUAUUUCCCGCAACCACUUCAACAGAGGAUUGAGCAUCA
B15: chr12:39756943:39756944:-_ENSG00000139116_ENST00000544797|hu_mus|hu_hu_hu_mus_False|8_38 (ssRNA)
RNA: GGGAGUUCUACAGUCCGACGAUCGGUUUGGCUGUUACCCCCAAGGGAAUCCUGCAAGAGUCUUGUCAGCUUAGAGUCUCUGUAAGGGACAUGGGUGGCCCUCUUGCUCUUGUCCCCCAAGGCGCUGAUUACAUUGCCAAGAGCCAACAGAGGAUUGAGCAUCA
B16: 120563640_120563760_5777_3pUTR_ENSMUSG00000090100_ENSMUST00000028740|mouse|control|control (ssRNA)
RNA: GGGAGUUCUACAGUCCGACGAUCUAUAUAAUUUACCAUGAAAGACAUGCAAGCAGUACUGCAGUAACUGUUAUACAAUAUAAUACAUAAGGAUCAGUCUCCAGUAUUACAGCUGUAAUAGAUAAACAACAAAUGCGCCUUACCCAACAGAGGAUUGAGCAUCA
B17: chr12:85018817:85018818:+_ENSMUSG00000010608_ENSMUST00000048155|mus_mus|motif|central (ssRNA)
RNA: GGGAGUUCUACAGUCCGACGAUCUUCUGCUUCUUCAUCUAGUACCAUGGCAACAUCAUCUAAAAUGCUCUGUGGUGAACGGUGUGCCAUAACCUUAGAGCAAACAAAAUCAACUAAUGUAGCUUCUUCUUCACCUAUGUAUUCCAACAGAGGAUUGAGCAUCA
B18: chr7:65705844:65705845:+_ENSG00000169902_ENST00000304842|hu_mus|hu_hu_hu_mus_False|68_108 (ssRNA)
RNA: GGGAGUUCUACAGUCCGACGAUCAAAAGGAUCUUUAUUACAUAAAUAAGGUGCCGGCUCCCCAUGUUUAACGAUAACCUCCAGAAGGAAGGCUUGCAUGGCAGAAUCUAGCACUUCAUCUGUGACACCCGCCUCAUCCAAGCGCAACAGAGGAUUGAGCAUCA
B19: chr1:55209531:55209532:+_ENSMUSG00000025979_ENSMUST00000162364|mus_hu|FALSE|FALSE (ssRNA)
RNA: GGGAGUUCUACAGUCCGACGAUCGUUAUCCUUGGACAUCAAAUUGUAUUUCAUCACAAACUUAGUAAACCGAUGACACAAAAAUGUUUCAUUUUCAUAUUCAUCAAAUAUCUGCCGAUGAUGAAAAUAAGCAUGUGAAAAUAUCAACAGAGGAUUGAGCAUCA
B20: chr8:117866615:117866616:-_ENSG00000164754_ENST00000297338|hu_mus|FALSE|FALSE (ssRNA)
RNA: GGGAGUUCUACAGUCCGACGAUCAAGCUUCUUGGUUGGCGGAGCCAGGUCCAGAGUCGUAACAAUAUCAGAAUAAUCGCUAAGCUGGGCUCUAAUGGUCUUACUAUCCAAUUCUUUGACACUGUCAACAAUCAGCUUCCUCUUCAACAGAGGAUUGAGCAUCA
B21: 57474714_57474834_186_3pUTR_ENSG00000005194_ENST00000569370|human|control|control (ssRNA)
RNA: GGGAGUUCUACAGUCCGACGAUCCACGCGGCCCUCAUUGCCGGUUAACGCUUGAAGCUUAUCCACCAGACCUUUCAGAGCCUCCACUGGGGAUGACUUAUCCCAGACCACUGCCACAAACUGGCCAGCAGAGAUCCCAAAAUCCAACAGAGGAUUGAGCAUCA
B22: 108213750_108213870_1231_3pUTR_ENSG00000128590_ENST00000249356|human|control|control (ssRNA)
RNA: GGGAGUUCUACAGUCCGACGAUCACAGAAAAUUGUUUAGCAUCAAAGAUAAUGAGGAAGAGUCAACCAGUUGGAUUUAGUGAGAAUAGAAUAAGAACUACUGUCCUGAACAGUCAGUGUAUGUAGUAACCAUAUUUCCUCUUCCAACAGAGGAUUGAGCAUCA

Molecular target: T1, UNK ZnF1-3
Test: nsRBNS (natural sequence RNA bind-n-seq); RBNS binding buffer (assumed for nsRBNS): 25 mM Tris pH 7.5, 150 mM KCl, 3 mM MgCl2, 0.01% Triton X-100, 500 ug/ml BSA, 20 U/ml SUPERase-In, 4 C; UNK is unkempt and MSI1 is Musashi-1; names of the RNAs are library labels; protein concentration not given here; high values mean tight binding

Compared with B1, B2 is lower in binding signal: 1.05 enrichment R for the first, 0.686 enrichment R for the second.

B3 and B4 are the same in binding signal: 1.1 enrichment R for the first, 1.1 enrichment R for the second.

First: B5
Second: B6
The binding signal of the first is lower: 1.82 enrichment R for the first, 2.47 enrichment R for the second.

Compared with B7, B8 is lower in binding signal: 0.636 enrichment R for the first, 0.389 enrichment R for the second.

Going from B9 to B10, the binding signal falls from 2.28 enrichment R to 1.02 enrichment R.

First: B11
Second: B12
The binding signal of the first is lower: 1.2 enrichment R for the first, 1.5 enrichment R for the second.

Going from B13 to B14, the binding signal rises from 0.618 enrichment R to 1.29 enrichment R.

First: B15
Second: B16
The binding signal of the first is lower: 0.813 enrichment R for the first, 1.09 enrichment R for the second.

First: B17
Second: B18
The binding signal of the first is higher: 1.05 enrichment R for the first, 0.53 enrichment R for the second.

Compared with B19, B20 is higher in binding signal: 0.603 enrichment R for the first, 0.998 enrichment R for the second.

Compared with B21, B22 is higher in binding signal: 1.02 enrichment R for the first, 1.78 enrichment R for the second.
